The labels stand for the following.
B1: CPEB3 Ribozyme (parent)
chain: UAACAGGGGGCCACAGCAGAAGCGUUCACGUCGCAGCCCCUGUCAGAUUCUGGUGAAUCUGCGAAUUCUGCUGUAUAUCUC

The source gives no read counts; variants with many changes may rest on few reads.

The variants in this data set derive from B1. Kind of data set: self-cleavage, relative activity (ratio to wild type); higher = more cleavage; in vitro, sequencing. The procedure, abridged: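 After error-prone PCR and barcoding, CPEB3 ribozyme mutant libraries were transcribed with T7 RNA polymerase at 37°C for 5 hours, then given 15 min with DNase I before an EDTA stop, and they cleaved during both steps. Reverse transcription with template switching preceded Illumina sequencing. Relative activity divides a variant's cleaved/total read fraction by the unmutated ribozyme's. At least 5 reads were required per variant, and three batches were averaged.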
Take UAACGGGGGGCCACAGCAGAAGCGUUCACGUCGCAGCCCCUGACAGAUCCUGGUGAAUCUGCGAAUUCUGCUGUAUAUCUC [A5G U43A U49C]: the self-cleavage was found to be 0.11.

For the variant UAACGGGGGGCCACAGCAGAAGCGUUCACGUCGCAGCCCCUGUCAGAAUCUGGUGAAUCUGCGAAUUCAGCUGUAUAUCUC [A5G U48A U69A], the self-cleavage was determined as 0.42.

With UAACGGGGGGCCACAGCAGAAGCGUUCACGUCGCAGCCCCUGUCAGACUCUGGUGAAUCUGCGAAUUGUGCUGUAUAUUUC [A5G U48C C68G C79U], the self-cleavage was 0.07.

On to UAACGGGGGGCCACAGCAGAAGCGUUCACGUCGCAGCCCCUGUCAGAUACUGAUGAAUCUGCGGAUUCUGCUGCAUAUCUC [A5G U49A G53A A64G U74C], for which the self-cleavage was found to be 0.22.

In the case of UAACGGGGGGCCACAGCAGAAGCGUUCACGUCGCAGCCCCUGCCAGAUUCUGGUGGAACUGCGAACUCUGCUGUAUAUCUC [A5G U43C A56G U58A U66C], the self-cleavage is 0.1.

As for UAACGGGGGGCCACAGCAGAAGCGUUCACGUCGCAGCCCCUGACAGAUCCUGGUGAAACUGCGAAUUCUGCUGUAUAUCUC [A5G U43A U49C U58A], the self-cleavage was 0.1.

With UAACGGGGGGCCACAGCAGAAGCGUUCACGUCGCAGCCCCUGACAGAUUCUGGUGGAUCUGCGAAUUCAGCUGUAUAUCUC [A5G U43A A56G U69A], the self-cleavage is 0.1.

As to UAACGGGGGGCCACAGCAGAAGCGUUCACGUCGCAGCCCCUGACGGAUUCUGGUGGAUCUGCGAGUUCUGCUGUAUAUCUC [A5G U43A A45G A56G A65G], the self-cleavage stood at 0.39.

On to UAACGGGGGGCCACAGCAGAAGCGUUCACGUCGCAGCCCCUGUCAGAUUCAGGUGAAUCUGCGAAUUCUGCUAUAUAUCUC [A5G U51A G73A], for which the self-cleavage worked out at 1.1.

Turning to UAACGGGGGGCCACAGCAGAAGCGUUCACGUCGCAGCCCCUGGCAGAUUCUGGUGAAUCUGAGAAUUCUGCUGUAUAUCUC [A5G U43G C62A], the self-cleavage worked out at 0.66.

Take UAACGGGGGGCCACAGCAGAAGCGUUCACGUCGCAGCCCCUGACAGAUUCUGGUGAAUCUGCGUAUUCUGCUGUAGAUCUC [A5G U43A A64U U76G]: the self-cleavage came out at 0.09.

Regarding UAACGGGGGGCCACAGCAGAAGCGUUCACGUCGCAGCCCCUGUCAGACUCUGGUGAAACUGCGAAUUCUGCUGUAUAUCUC [A5G U48C U58A], the self-cleavage stood at 0.53.

With UAACGGGGGGCCACAGCAGAAGCGUUCACGUCGCAGCCCCUGCCAGAUUCAGGUGAAUCUGCGAAUUCUGCUGUAUAUCUC [A5G U43C U51A], the self-cleavage amounted to 0.28.

Consider UAACGGGGGGCCACAGCAGAAGCGUUCACGUCGCAGCCCCUGUCAGACUCUGGUGAAUCUGCGAAUUCCGCCGUAUAUCUC [A5G U48C U69C U72C], for which the self-cleavage is 0.15.

For the variant UAACGGGGGGCCACAGCAGAAGCGUUCACGUCGCAGCCCCUGUCAGACUCUGGUGAAGCUGCGAGUUCUGCUGUAUAUCUC [A5G U48C U58G A65G], the self-cleavage was 0.44.

As for UAACGGGGGGCCACAGCAGAAGCGUUCACGUCGCAGCCCCUGCCAGAUUCCGGUGAAUCUGCGCAUUCUGCUGUAUAUCUC [A5G U43C U51C A64C], the self-cleavage was 0.14.

UAACGGGGGGCCACAGCAGAAGCGUUCACGUCGCAGCCCCUGACAGACUCUGGUUAAUCUGCGAAUUCUGCCGUAUAUCUC [A5G U43A U48C G55U U72C]: the self-cleavage turned out to be 0.22.

As for UAACGGGGGGCCACAGCAGAAGCGUUCACGUCGCAGCCCCUGUCAGACUCUGGUGAAUCUGCGAAUUCUUCUGUAUAUCCC [A5G U48C G70U U80C], the self-cleavage came out at 0.17.

Turning to UAACGGGGGGCCACAGCAGAAGCGUUCACGUCGCAGCCCCUGCCAGAUUCUGGUGAAUCUGCGAAUUCUGCUGUAUACCAC [A5G U43C U78C U80A], the self-cleavage was 0.6.

On to UAACGGGGGGCCACAGCAGAAGCGUUCACGUCGCAGCCCCUGCCAGAUUCUGGUGAAUCUGCGAAUUAUGCUGUAUAUCUC [A5G U43C C68A], for which the self-cleavage is 0.26.

As to UAACGGGGGGCCACAGCAGAAGCGUUCACGUCGCAGCCCCUGACAGAUUCUGGUGAAUCUGAGAAUUCUGCUGUAUAUCAC [A5G U43A C62A U80A], the self-cleavage was determined as 0.14.

As to UAACGGGGGGCCACAGCAGAAGCGUUCACGUCGCAGCCCCUGCCAGAUUCUGGUGAAUCUGCGGAUUCUGCUGUAUACCUC [A5G U43C A64G U78C], the self-cleavage was 0.21.

In the case of UAACGGGGGGCCACAGCAGAAGCGUUCACGUCGCAGCCCCUGUCAGAUUCAAGUGAAUCUGCGAAUUCUGCUGUAUAUCUC [A5G U51A G52A], the self-cleavage was found to be 0.49.

With UAACGGGGGGCCACAGCAGAAGCGUUCACGUCGCAGCCCCUGCCAGAUUCUGGUGAAUCCGCGAAUUCAGCUGUUUAUCUC [A5G U43C U60C U69A A75U], the self-cleavage is 0.08.

Consider UAACGGGGGGCCACAGCAGAAGCGUUCACGUCGCAGCCCCUGCCAGAUUCUGGAGAAUCUGCGAAUUCUGCUGUAUAUCUC [A5G U43C U54A], for which the self-cleavage amounted to 0.5.

As for UAACGGGGGGCCACAGCAGAAGCGUUCACGUCGCAGCCCCUGUCAGACUCUGGAGAAUCUGCGAAUUCUGCUGUAUAUCUU [A5G U48C U54A C81U], the self-cleavage was determined as 0.6.

Take UAACGGGGGGCCACAGCAGAAGCGUUCACGUCGCAGCCCCUGCCAGAUUCUGGUGAACCUGCGAACUCUGCUGUAUAUCUC [A5G U43C U58C U66C]: the self-cleavage amounted to 0.08.

Take UAACGGGGGGCCACAGCAGAAGCGUUCACGUCGCAGCCCCUGUCAGAUUCAGGUGAAUCUGCGAGUUCUGCUGUAUAUCUC [A5G U51A A65G]: the self-cleavage came out at 0.38.

As for UAACGGGGGGCCACAGCAGAAGCGUUCACGUCGCAGCCCCUGCCAGAUUCCGGUGAAUCUGCGAAUUCUGCUGUAUAACUC [A5G U43C U51C U78A], the self-cleavage was found to be 0.71.

With UAACGGGGGGCCACAGCAGAAGCGUUCACGUCGCAGCCCCUGUCAGAUUCAGGUGAAUCUGCGAAUUCUGCCGUAUAUCUC [A5G U51A U72C], the self-cleavage is 0.72.

In the case of UAACGGGGGGCCACAGCAGAAGCGUUCACGUCGCAGCCCCUGUCAGACUCUGGUGAGUCUGCGAAUUCUGCUGUAUAUCUC [A5G U48C A57G], the self-cleavage stood at 0.63.

Turning to UAACGGGGGGCCACAGCAGAAGCGUUCACGUCGCAGCCCCUGUCAGACUCUGGCGAAUCUGCGAACUCUGCUGUAUAUCUC [A5G U48C U54C U66C], the self-cleavage stood at 0.4.

Consider UAACGGGGGGCCACAGCAGAAGCGUUCACGUCGCAGCCCCUGUCAGACUCUGGUGGAUCUGCGAAUUCUGCUGUAUAUCUC [A5G U48C A56G], for which the self-cleavage was 0.37.

UAACGGGGGGCCACAGCAGAAGCGUUCACGUCGCAGCCCCUGUCAGACUCAGGAGAAUCUGCGAAUUCUGCUGUAUAUCUC [A5G U48C U51A U54A]: the self-cleavage came out at 0.21.
